# Among all 110,000 compounds or so, about 230 (0.21%) showed an effect of 50% or more. This is one part of the list.
# Target: DPAP1 (Plasmodium falciparum, UniProt Q8IIJ9)
# Assay: primary screen, percent inhibition; read by cleavage of a fluorogenic dipeptide substrate; higher = more effect of the substance
# Set-up: species or system P. falciparum D10 trophozoite lysates; single well
# 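Note: 30 min substrate incubation versus DMSO and 10 µM JCP410 controls.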
# DPAP1, sequence (Q8IIJ9 whole entry, looked up): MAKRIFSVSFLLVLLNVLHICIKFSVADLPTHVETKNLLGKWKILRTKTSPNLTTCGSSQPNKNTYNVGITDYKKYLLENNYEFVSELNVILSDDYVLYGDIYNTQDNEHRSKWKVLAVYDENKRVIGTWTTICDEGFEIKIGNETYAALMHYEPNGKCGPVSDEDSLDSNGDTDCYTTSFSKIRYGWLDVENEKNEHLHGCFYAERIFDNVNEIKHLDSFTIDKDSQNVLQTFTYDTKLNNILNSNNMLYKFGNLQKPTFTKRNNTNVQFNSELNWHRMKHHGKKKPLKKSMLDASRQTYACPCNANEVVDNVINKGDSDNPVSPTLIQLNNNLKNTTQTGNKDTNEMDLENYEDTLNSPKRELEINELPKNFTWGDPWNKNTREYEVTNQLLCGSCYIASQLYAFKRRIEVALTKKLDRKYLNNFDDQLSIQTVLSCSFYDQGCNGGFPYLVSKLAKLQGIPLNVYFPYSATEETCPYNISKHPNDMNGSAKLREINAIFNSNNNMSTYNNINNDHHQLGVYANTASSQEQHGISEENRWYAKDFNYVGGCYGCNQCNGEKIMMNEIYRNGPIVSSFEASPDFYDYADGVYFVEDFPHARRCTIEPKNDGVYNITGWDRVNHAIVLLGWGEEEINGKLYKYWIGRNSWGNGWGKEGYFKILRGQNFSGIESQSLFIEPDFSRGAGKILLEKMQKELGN
row,Structure (SMILES),% Inhibition @ 10 uM [%]
1,Cc1c(C(=O)N2CCC(C(N)=O)CC2)sc(N)c1C#N,-0.436
2,O=C(Nc1ccccc1N1CCOCC1)c1ccc(Cl)c(Cl)c1,-5.92
3,Nn1cnnc1SCc1ccccc1,-3.06
4,CC(C)CNC(=O)c1cccc2c1-c1ccccc1C2=O,2.57
5,CCCCCOC(=O)NC1CCS(=O)(=O)C1 (stereo not drawn),-2.44
6,CCOC(=O)c1c(O)c(O)nc2ccccc12,0.992
7,Cc1ccc2nc(C(=O)O)c(C(=O)O)nc2c1,-3.33
8,O=C(Cn1nnc(-c2ccc(OCc3ccccc3Cl)cc2)n1)NC1CCCC1,1.32
9,c1ccc(C(c2ccccc2)n2nnnc2C2(N3CCCC3)CCCCC2)cc1,-2.42
10,Nc1cc2cccnc2c2ncccc12,-4.61
11,C=CCNc1nc(-c2ccc(F)cc2F)cs1,5.31
12,Cc1ccc2nc(NC(=O)c3c(O)nc4ccccc4c3O)sc2c1,1.86
13,Cc1cc(C)cc(C(=O)N(CCc2ccccc2)C2=CC3CCC(C2)N3C)c1 (stereo not drawn),-5.08
14,CC1CCCC(C)N1c1nnc(N)s1 (stereo not drawn),4.61
15,CC(C)(C)C(=O)Nc1ccc(C(=O)Nc2ccc(C(=O)O)cc2)cc1,0.67
16,CCC1CCc2c(sc(N)c2C(N)=O)C1 (stereo not drawn),12.1
17,CCOC(=O)N1CCN(C(=O)c2cc3c(s2)-c2ccccc2S(=O)(=O)C3)CC1,-7.72
18,N#C/C(=C\c1ccc(-c2ccc(Cl)cc2)o1)S(=O)(=O)c1ccccc1,15.9
19,COc1ccc(OC)c(CCNC(=O)CCc2c(C)nc3c(-c4ccc(F)cc4)c(C)nn3c2C)c1,1.26
20,CC1(C)Cc2c(c(N3CCOCC3)nc3sc(C#N)c(N)c23)CO1,-0.85
21,CCCC[C@H](NC(=O)c1cccc(N)c1)C(=O)NCC#N,-3.49
22,N#C/C(=C/C=C/c1ccccc1)c1nc(-c2cc3cc(Br)ccc3oc2=O)cs1,7.04
23,CC1CN(C)C(c2ccccc2)CC1(O)c1ccccc1 (stereo not drawn),-1.76
24,O=C1CC(Cc2ccccc2)C(=O)N1CCOC12CC3CC(CC(C3)C1)C2 (stereo not drawn),-2.19
25,Cc1c(C(=O)O)oc2ccc(S(=O)(=O)NCCc3ccccc3)cc12,-0.519
26,CSCCC(Nc1ncnc2ccccc12)C(=O)O (stereo not drawn),-11.7
27,COC(=O)C1=C(C)NC(=O)CC1c1ccc2c(c1)OCO2 (stereo not drawn),-3.32
28,Cc1ccc2nc3c(O)n(C)nnc-3c2c1,-7.19
29,Cc1nc2c(C(=O)N3CCc4ccccc4C3)cnn2c(O)c1Cc1ccc(F)cc1Cl,-5.52
30,COc1cc(CNCCSc2nnnn2-c2ccccc2)cc(OC)c1OC,-4.71

# — PMC6919601, “Identification of Plasmodium dipeptidyl aminopeptidase allosteric inhibitors by high throughput screening” (PLoS ONE, 2019)
